# From PubChem BioAssay AID488969 (Vanderbilt High Throughput Screening Facility, 2010)
# Over roughly 110,000 compounds, “z-score” has its median near -0.1; the highest 2% begin near 2. Some of the results follow. Activity calls are given as the source filed them.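 How the source made its calls: active means z-score in the third read window above 3 or below -3; inactive means the rest.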
# Target: Metabotropic glutamate receptor 8 (Rattus norvegicus) (UniProt P70579)
# Assay: rat mGluR8 modulators via GIRK flux, primary screen, cell-based, thallium flux, HTS (AID 488969)
# Settings: HEK293 rat mGluR8, GIRK (G protein-gated inwardly rectifying potassium channel) thallium flux, FluoZin2; at 10 µM; stronger effect = higher value; submaximal glutamate (EC20) added with thallium
# Sequence of UniProt P70579 (P70579 whole entry, looked up): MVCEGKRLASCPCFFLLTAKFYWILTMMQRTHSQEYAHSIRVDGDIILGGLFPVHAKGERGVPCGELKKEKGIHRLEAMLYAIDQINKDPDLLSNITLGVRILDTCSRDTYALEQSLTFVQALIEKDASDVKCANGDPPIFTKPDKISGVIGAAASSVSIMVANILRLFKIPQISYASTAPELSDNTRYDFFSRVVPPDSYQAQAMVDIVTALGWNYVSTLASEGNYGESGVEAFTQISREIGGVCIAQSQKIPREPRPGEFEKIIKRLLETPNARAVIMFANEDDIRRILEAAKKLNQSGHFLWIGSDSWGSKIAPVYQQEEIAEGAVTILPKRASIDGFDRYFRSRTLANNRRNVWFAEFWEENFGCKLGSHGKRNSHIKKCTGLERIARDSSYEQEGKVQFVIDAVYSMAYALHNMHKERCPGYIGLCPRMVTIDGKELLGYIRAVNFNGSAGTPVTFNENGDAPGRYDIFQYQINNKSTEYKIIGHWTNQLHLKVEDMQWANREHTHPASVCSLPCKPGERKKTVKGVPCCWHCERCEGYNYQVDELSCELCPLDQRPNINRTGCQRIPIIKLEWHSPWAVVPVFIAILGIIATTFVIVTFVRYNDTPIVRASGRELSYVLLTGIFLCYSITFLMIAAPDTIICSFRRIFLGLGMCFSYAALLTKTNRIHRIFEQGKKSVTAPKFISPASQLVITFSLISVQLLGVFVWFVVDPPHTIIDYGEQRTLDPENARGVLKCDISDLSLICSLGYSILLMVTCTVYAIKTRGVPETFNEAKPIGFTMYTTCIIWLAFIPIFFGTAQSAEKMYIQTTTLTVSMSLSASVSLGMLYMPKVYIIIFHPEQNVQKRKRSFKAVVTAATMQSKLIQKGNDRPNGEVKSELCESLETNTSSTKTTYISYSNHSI
row,SMILES,z-score
1,CCN(CC)c1ccc(/C=N/NC(=O)c2c(Cl)cnn2C)c(O)c1,-0.49
2,CCN(CC)CCCN1C(=O)C(O)=C(C(=O)c2ccco2)C1c1ccc(OC(C)C)cc1 (stereo unspecified),-0.35
3,NC(=S)Nc1cccc2cccnc12,0.156
4,CCOC(Cn1c(CCCO)nc2ccccc21)OCC,-0.5
5,Oc1cccc(/C=N/c2c(-c3ccco3)nc3ccccn23)c1,0.026
6,FC(F)(F)c1cnc(Sc2nc3nccc(-c4ccc(Cl)cc4)n3n2)c(Cl)c1,-0.6
7,CC1CCN(C(=O)CCc2ccc(S(=O)(=O)NC(C)(C)C)cc2)CC1,0.209
8,CC(C)c1nc(=S)n(-c2ccccc2)[nH]1,active: 4.41
9,COC(=O)/C(=C\c1ccc([N+](=O)[O-])o1)NC(=O)c1ccccc1,-0.168
10,Cc1ccc(NC(=O)CCC(=O)NNC(=O)c2cccs2)cc1C,-0.0709
11,COc1cccc(-n2nc3c(=S)[nH]nc(C)c3c2C)c1,0.0943
12,COc1ccc(Nc2nc(-c3sc(N)nc3C)cs2)cc1,0.175
13,COC(=O)c1cc(Cl)c(NC(=O)c2cc(OC)c(OC)c(OC)c2)cc1OC,-0.179
14,CCOC(=O)c1nn(C23CC4CC(CC(C4)C2)C3)c2c1C(=O)N(c1ccc(C)cc1)C2=O,-0.0256
15,O=C(Nc1sc2c(c1CN1CCOCC1)CCC2)c1ccc(F)cc1,-0.457
16,CC(C)Oc1ccc(CNCCC2(C(C)C)CCOC(C)(C)C2)cc1 (stereo unspecified),0.314
17,Cc1nc2c(C)cccn2c1C(=O)c1ccccc1,-0.3
18,CN(C)CCCNCC(=O)Nc1ccccc1N1CCOCC1,0.116
19,CC(C)(C)NC(=O)Cn1c(=O)c(=O)n(Cc2ccccc2)c2ccc(Cl)cc21,-0.366
20,Cc1nn(-c2ccccc2)c(C)c1C(=O)NCc1cccs1,-0.127
21,COc1cccc(NC(=O)CN(C)C(=O)c2ccc3ccccc3c2)c1,-0.156
22,c1ccc(CC2CCN(c3nnnn3-c3ccccc3)CC2)cc1,0.193
23,C=CCN(c1cccc(C(F)(F)F)c1)S(=O)(=O)c1cccc(C(=O)OCC(=O)NCCC)c1,-0.367

row,SMILES,z-score
1,O=C(NCC(=O)N(Cc1cccs1)C(C(=O)NC1CCCCC1)c1ccco1)c1ccco1 (stereo unspecified),2.96
2,O=C(O)Cc1c(O)ccc2ccccc12,-0.0548
3,O=C(O)c1ccc(-c2nc3ccccc3[nH]2)cc1,-0.221
4,CN(C(=O)c1cccc(C#N)c1)c1nnc(-c2cnccn2)s1,-1.04
5,CSc1nc(C)c(Oc2ccccc2)c(=O)n1C,-0.388
6,O=C(Cn1c(-c2cncs2)nc2ccccc21)NCc1ccccc1,0.385
7,Cn1c(=O)c2c(ncn2CC(N)=O)n(C)c1=O,-1.29
8,COc1ccc(N=Nc2nc(-c3ccccc3)c(-c3ccccc3)[nH]2)cc1,-0.365
9,O=C(Nc1cccc2ncccc12)C12CC3CC(CC(C3)C1)C2,-0.203
10,COc1ccc(C2=NOC(C(=O)NCC(C)C)C2)cc1 (stereo unspecified),-0.398
11,Cc1cc(Oc2ccc(C#N)cc2)nc(N2CCOCC2)n1,-0.0236
12,Cc1onc(-c2ccccc2)c1C(=O)Nc1ccc(N2CCOCC2)cc1,-0.074
13,CCOC(=O)C1(C(F)(F)F)N=C(N(C)C)OC(N(C)C)=N1,-0.192
14,CC(=O)Nc1cc(NC(C)=O)cc(C(=O)NC(C)(C)C)c1,-0.383
15,COc1ccc(C(=O)n2nc(-c3ccccc3)nc2SC)cc1,-0.0105
16,COc1ccc(OCCC(=O)N2CCCCC2)cc1,-0.155
17,O=C1c2ccccc2NC(c2ccc(-c3ccc(Br)cc3)o2)N1O (stereo unspecified),active: 3.36
18,O=c1cc(CO)occ1OCc1cccc(F)c1,0.0037
19,CCc1c(C)nc(N)n2c(SCC(=O)N3CCCc4ccccc43)nnc12,0.329
20,O=C1CC(c2ccco2)CC2=C1C1c3ccccc3C(=O)N1c1ccccc1N2 (stereo unspecified),-0.131
21,COc1ccc(C/C(N)=N/OC(C)=O)cc1OC,-0.0812
22,CCc1ccc(NC(=O)c2ccc(F)c(S(=O)(=O)N(CC)c3ccccc3)c2)cc1,0.16
23,COc1ccccc1NC(=S)Nc1cccc(F)c1,-0.134

row,SMILES,z-score
1,Cc1ccccc1S(=O)(=O)Cc1ccc(C(=O)NCCCN2CCN(C)CC2)o1,0.391
2,COc1ccccc1NS(=O)(=O)c1cc([N+](=O)[O-])ccc1N/N=C/c1c[nH]c2ccccc12,-0.233
3,O=C(Cc1c(F)cccc1Cl)Nc1cccnc1,0.22
4,Cc1ccc(C)n1-c1ccc(-c2nnco2)cc1,0.174
5,Cc1nccn1CC(O)COc1ccccc1 (stereo unspecified),-0.0583
6,O=c1[nH]c2ccccc2nc1/C=C(\O)C(F)F,0.122
7,CC(=O)Nc1ccc(S(=O)(=O)Nc2nc3ccc(C)cc3s2)cc1,0.464
8,CCCC(=O)NC(Nc1ccccc1F)C(Cl)(Cl)Cl (stereo unspecified),-0.279
9,O=C(OCC(=O)N1N=C(c2ccc(Cl)cc2)CC1c1ccco1)c1ccccc1O (stereo unspecified),0.0346
10,CC(C)(C)NC(=O)C(c1ccncc1)N(C(=O)CNC(=O)c1ccco1)c1ccc2c(c1)OCO2 (stereo unspecified),0.106
11,CC(C)C(NC(=O)C12CC3CC(CC(C3)C1)C2)C(=O)NC1=NCCS1 (stereo unspecified),-0.431
12,CC(=O)C1=C(C)NC(=O)NC1c1ccc(OC2CCCC2)cc1 (stereo unspecified),-0.185
13,CCCn1c2c(c(O)c(C(=O)NCCCN(CC)CC)c1=O)CCCC2,0.585
14,COc1ccc(C2C3=C(CC(C)(C)CC3=O)Nc3cc4c(cc32)OCO4)cc1 (stereo unspecified),-0.138
15,CC(C)NS(=O)(=O)c1ccc(OCC(=O)Nc2ccc(F)cc2F)cc1,-0.272
16,O=C(c1cc2nc(-c3cccs3)cc(C(F)(F)Cl)n2n1)N1CCCc2ccccc21,1.32
17,CN(CCO)c1ncnc2nc[nH]c12,0.434
18,CC(=O)c1c(N2CCOCC2)nc(=O)n(-c2ccccc2)c1C,0.0445
19,COc1ccc(CCN2CC(O)=C(c3nc4ccccc4c(=O)[nH]3)C2=N)cc1OC,-0.416
20,COC(=O)c1ccc(NC(=O)C2CC(=O)N(c3cc(C)ccc3C)C2)cc1 (stereo unspecified),-0.0858
21,N#CC(C(=O)c1ccco1)c1ccccn1 (stereo unspecified),0.705
22,O=C(C1=C(O)C(=O)N(Cc2ccccc2)C1c1cccnc1)c1ccco1 (stereo unspecified),-0.769
23,O=C(CSc1nnnn1C1CCCCC1)NCc1cccc(C(=O)O)c1,-0.303

row,SMILES,z-score
1,Cc1oc(-c2cccc(Cl)c2)nc1CN1CCC(C(=O)NCc2cccnc2)CC1,-0.0247
2,COc1ccc(-n2c(-c3ccccc3)cc3c2CCCC3=O)cc1,-0.36
3,O=C(Nc1nccs1)C(=O)c1c[nH]c2ccccc12,0.0629
4,COc1ccc2cc3cc(C(=O)Nc4cc(OC)c(OC)c(OC)c4)oc3nc2c1,-0.255
5,COc1ccc(OCC(=O)NN2Cc3ccccc3C2=N)cc1,0.0323
6,COc1ccc2nc(SCC(=O)N3CC(=O)Nc4ccccc43)c(C#N)cc2c1,-0.773
7,CCC(C)(C)NC(=O)C(c1cccc(OC)c1)N(C(=O)c1ccn[nH]1)c1cccc(OC)c1 (stereo unspecified),-1.39
8,O=C(NCc1ccc(Cl)cc1)c1cc(-c2cccs2)on1,-0.283
9,COc1ccccc1NC(=O)C1=C(C)Nc2nc(-c3ccccc3)nn2C1c1ccccn1 (stereo unspecified),0.166
10,CCOCCCNC(=O)C(c1ccc(OC)cc1)N(Cc1ccc2c(c1)OCO2)C(=O)CNC(C)=O (stereo unspecified),0.266
11,O=C(Nc1nnc(-c2ccccc2F)s1)C1CCCO1 (stereo unspecified),0.0714
12,CCCNC(=O)c1[nH]c(C)c(C(C)=O)c1C,0.141
13,COc1cc(/C=N\NC(=O)CN2CCOCC2)ccc1OCC(=O)Nc1ccc(C)c(C)c1,-0.123
14,CCc1nc(Nc2ccc(N3CCN(C(C)=O)CC3)cc2)c2oc3ccccc3c2n1,-0.238
15,O=C(c1ccco1)N1CCC(c2ccccc2)C1 (stereo unspecified),0.0412
16,C=CCC(CC=C)(NC(=O)c1ccccc1C(=O)O)c1ccccc1,0.0704
17,CS(=O)(=O)N(CC(=O)N/N=C/c1cc2c(cc1Br)OCO2)c1ccccc1Br,-0.0775
18,Cc1ccc(/C=N/NC(=O)c2ccc(C(=O)N/N=C/c3ccc(C)s3)o2)s1,0.0623
19,O=C(Nc1ccn(Cc2ccccc2F)n1)c1ccc(COc2ccc(Br)cc2)cc1,-0.439
20,Cc1cc(-c2n[nH]c(=S)o2)c(C)n1-c1ccccc1,0.0801
21,NS(=O)(=O)c1ccc(CCNC(=S)Nc2ccc(S(N)(=O)=O)cc2)cc1,0.115
22,COC(=O)c1ccc(CSc2nc3c(c(=O)n2-c2ccc(F)cc2)SCC3)o1,active: -3.65
23,COc1ccc(C(=O)Nc2ccc3c(c2)nc(CCNC(C)=O)n3C)cc1,-0.0809

row,SMILES,z-score
1,CCC(c1c(C)n(C)n(-c2ccccc2)c1=O)c1c(C)n(C)n(-c2ccccc2)c1=O,0.0304
2,CCC(C)(C)NC(=O)C(c1ccc(F)cc1)N(Cc1ccco1)C(=O)c1cnccn1 (stereo unspecified),active: 3.05
3,O=C(CNCCN1CCOCC1)Nc1ccccc1Sc1ccccc1,0.0321
4,Cc1cc(C)c2c(N)c(C(=O)NC3CC3)sc2n1,-0.539
5,COc1ccc(OC)c(C(c2nnnn2CC2CCCO2)N2CCN(C3CCCC3)CC2)c1 (stereo unspecified),1.27
6,O=C1COc2ccc(C(=O)COC(=O)c3sc4ccccc4c3Cl)cc2N1,-0.245
7,CCOc1cccc(-c2cc(=O)[nH][nH]2)c1,0.0756
8,O=C(CC1Oc2ccccc2NC1=O)NCCCN1CCN(C2CCCCC2)CC1 (stereo unspecified),0.359
9,O=C(O)C1C2C=CC(C2)C1C(=O)NCCc1ccccc1 (stereo unspecified),-0.122
10,CCOC(=O)C1CCN(C(=O)COc2ccc(S(=O)(=O)NC(C)C)cc2)CC1,-0.107
11,O=C(NCc1ccccc1)c1cc(S(=O)(=O)N2CCC3(CC2)OCCO3)ccc1F,0.0291
12,N#CCCN(CCC#N)C(=O)COc1ccc(Cl)cc1Cl,0.143
13,CC1Cc2ccccc2N1C(=O)Cc1cccs1 (stereo unspecified),-0.395
14,COc1ccc2c(c1)CCC/C2=N\NC(=O)c1ccoc1C,-0.15
15,CCN1C(=O)N(CC)C2C1N(C(C)=O)C(=O)N2C(C)=O (stereo unspecified),-0.4
16,C/C(CC(=O)NC(C)(C)C)=N\NC(=O)c1ccco1,-0.165
17,COc1ccc(-n2c(C)cc(C(=O)CSc3nn4c(=O)c(C(C)(C)C)nnc4s3)c2C)cc1,-0.483
18,CC(C)CN=c1cc(-c2ccccc2)oc2ccc(Cl)cc12,-1.43
19,CC(C)Nc1nc(NC(C)C)nc(NS(=O)(=O)c2ccc(N)cc2)n1,-0.0611
